In article PMC12820563 one finds binding signal (RPM ratio (pull-down/input)) data, which are given here for 18 sequences.

The list shows a part of the results. The list includes weakly bound sequences.

The target in the assay is T1, MBP-FoxP3dN (UniProt Q99JB6).
T1 sequence: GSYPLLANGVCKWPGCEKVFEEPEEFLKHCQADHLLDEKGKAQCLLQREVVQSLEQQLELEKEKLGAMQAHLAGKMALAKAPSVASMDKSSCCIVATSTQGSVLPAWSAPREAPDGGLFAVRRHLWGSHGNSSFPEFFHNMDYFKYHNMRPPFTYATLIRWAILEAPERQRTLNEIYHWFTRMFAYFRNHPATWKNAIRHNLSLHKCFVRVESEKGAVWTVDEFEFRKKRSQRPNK
Kind of assay: PD-seq (MBP pull-down with sequencing). The note with it: 20 mM Tris-HCl pH 7.5, 100 mM NaCl, 1.5 mM MgCl2, 0.4 uM protein, 0.1 uM dsDNA library, 30 min, room temperature, amylose pull-down; high values mean tight binding; double strand, one strand shown.
Take “GATGATTGTTCTCCCAGCTGATGAATTGGAGTTCTCGAGTAAACAAATTTTCCTAATCTTTCTGTTCAAGCGCCATCTAC”: the binding signal (RPM ratio (pull-down/input)) turned out to be 0.548.

For “GATGATTGTTCTCCCAGCTGATGAATTCGGGGGGTCGAGTAAACAAATTTTCCTAATCTTTCTGTTCAAGCGCCATCTAC”, the binding signal (RPM ratio (pull-down/input)) is 0.886. The value for “GATGATTGTTCTCCCAGCTGATGAATTTAATCGTTCGAGTAAACAAATTTTCCTAATCTTTCTGTTCAAGCGCCATCTAC” was 0.599. With “GATGATTGTTCTCCCAGCTGATGAATTAATCAACTCGAGTAAACAAATTTTCCTAATCTTTCTGTTCAAGCGCCATCTAC”, the binding signal (RPM ratio (pull-down/input)) was 0.446. Under “GATGATTGTTCTCCCAGCTGATGAATTACACGTCTCGAGTAAACAAATTTTCCTAATCTTTCTGTTCAAGCGCCATCTAC” stands 0.646; under “GATGATTGTTCTCCCAGCTGATGAATTAACCAGATCGAGTAAACAAATTTTCCTAATCTTTCTGTTCAAGCGCCATCTAC”, 0.176. The value for “GATGATTGTTCTCCCAGCTGATGAATTAACTGGATCGAGTAAACAAATTTTCCTAATCTTTCTGTTCAAGCGCCATCTAC” was 0.191; that for “GATGATTGTTCTCCCAGCTGATGAATTTGTGGGTTCGAGTAAACAAATTTTCCTAATCTTTCTGTTCAAGCGCCATCTAC” was 3.87; that for “GATGATTGTTCTCCCAGCTGATGAATTCGGTCCGTCGAGTAAACAAATTTTCCTAATCTTTCTGTTCAAGCGCCATCTAC” was 0.258. The value for “GATGATTGTTCTCCCAGCTGATGAATTATGACTGTCGAGTAAACAAATTTTCCTAATCTTTCTGTTCAAGCGCCATCTAC” was 1.1. Turning to “GATGATTGTTCTCCCAGCTGATGAATTAGAGAGTTCGAGTAAACAAATTTTCCTAATCTTTCTGTTCAAGCGCCATCTAC”, the binding signal (RPM ratio (pull-down/input)) was 0.399. The value for “GATGATTGTTCTCCCAGCTGATGAATTTCGCGGCTCGAGTAAACAAATTTTCCTAATCTTTCTGTTCAAGCGCCATCTAC” was 0.658; that for “GATGATTGTTCTCCCAGCTGATGAATTGTTGGCATCGAGTAAACAAATTTTCCTAATCTTTCTGTTCAAGCGCCATCTAC” was 2.52. On to “GATGATTGTTCTCCCAGCTGATGAATTTTTATAGTCGAGTAAACAAATTTTCCTAATCTTTCTGTTCAAGCGCCATCTAC”, for which the binding signal (RPM ratio (pull-down/input)) came to 0.288. Under “GATGATTGTTCTCCCAGCTGATGAATTACTGGCTTCGAGTAAACAAATTTTCCTAATCTTTCTGTTCAAGCGCCATCTAC” stands 0.325; under “GATGATTGTTCTCCCAGCTGATGAATTAAGCCCCTCGAGTAAACAAATTTTCCTAATCTTTCTGTTCAAGCGCCATCTAC”, 1.09; under “GATGATTGTTCTCCCAGCTGATGAATTATCCTAGTCGAGTAAACAAATTTTCCTAATCTTTCTGTTCAAGCGCCATCTAC”, 0.24. For “GATGATTGTTCTCCCAGCTGATGAATTTGTTTAATCGAGTAAACAAATTTTCCTAATCTTTCTGTTCAAGCGCCATCTAC”, the binding signal (RPM ratio (pull-down/input)) was determined as 5.42.
